B1: pyrene-labeled apoE4([…]) single Cys variant A62C (natural protein)
chain: not shown
modifications: N-(1-pyrene)maleimide on Cys62
B2: pyrene-labeled apoE4([…]) single Cys variant A216C (natural protein)
chain: not shown
modifications: N-(1-pyrene)maleimide on Cys216
B3: pyrene-labeled apoE3([…]) single Cys variant A216C (endogenous Cys112 replaced by Ser) (natural protein)
chain: not shown
modifications: N-(1-pyrene)maleimide on Cys216
B4: pyrene-labeled apoE3([…]) single Cys variant A62C (endogenous Cys112 replaced by Ser) (natural protein)
chain: not shown
modifications: N-(1-pyrene)maleimide on Cys62
B5: pyrene-labeled apoE4([…]) single Cys variant A29C (natural protein)
chain: not shown
modifications: N-(1-pyrene)maleimide on Cys29
B6: pyrene-labeled apoE3([…]) single Cys variant A29C (endogenous Cys112 replaced by Ser) (natural protein)
chain: not shown
modifications: N-(1-pyrene)maleimide on Cys29
B7: pyrene-labeled apoE4([…]) single Cys variant A256C (natural protein)
chain: not shown
modifications: N-(1-pyrene)maleimide on Cys256
B8: pyrene-labeled apoE3([…]) single Cys variant A256C (endogenous Cys112 replaced by Ser) (natural protein)
chain: not shown
modifications: N-(1-pyrene)maleimide on Cys256
B9: pyrene-labeled apoE3([…]) single Cys variant at A102 (endogenous Cys112 replaced by Ser) (natural protein)
chain: not shown
modifications: N-(1-pyrene)maleimide on Cys102
B10: pyrene-labeled apoE4([…]) single Cys variant at A102 (natural protein)
chain: not shown
modifications: N-(1-pyrene)maleimide on Cys102

Molecular target: the molecule itself
Assay: pyrene excimer fluorescence

Protein | e/m ratio (fluorescence intensity at 460 nm / 375 nm)
B1 | 0.67
B2 | 1.56
B3 | 0.91
B4 | 0.32
B5 | 1.33
B6 | 0.46
B7 | 2.22
B8 | 1.45
B9 | 0.29
B10 | 1.96

Reference: article PMC8211829 (Biochimica et biophysica acta. Biomembranes, 2021)
